About 120 (0.75%) of roughly 16,000 compounds were called active. Roughly 4% stayed inconclusive and do not appear here. Calls follow the shape of the dose curve; as a rule, active = well fitted inhibition curve with a large enough effect; inconclusive = small, poorly fitted or top-dose-only effect; inactive = no such curve, though single readings can be large or run the other way. The list shows a part of the results. Where a SMILES comes first, the peptide text is derived from it. [ ]: non-standard residue; d: D form. Sar = CNCC(=O)O
Biological target: Rap guanine nucleotide exchange factor 3 (Homo sapiens) (UniProt O95398)
Test: Validation qHTS for antagonist of cAMP-regulated guanine nucleotide exchange factor 3 (EPAC1); also: nearly all actives have a fitted effect of over 75% in size
Conditions: EPAC1 Rap1B-BODIPY-GDP exchange, fluorescence; series mostly up to 150 µM; activity change, negative = inhibition: at the top concentration
Outline: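 EPAC1 (100 nM) mixed with 250 nM RAP1B-BODIPY-GDP and 50 uM GDP; compounds in concentration series, 5 min at room temperature. Fluorescence (ex 480/em 540 nm) read every 5 min for 30 min; normalized to ATA control and DMSO.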

UniProt O95398, sequence (O95398 whole entry, looked up): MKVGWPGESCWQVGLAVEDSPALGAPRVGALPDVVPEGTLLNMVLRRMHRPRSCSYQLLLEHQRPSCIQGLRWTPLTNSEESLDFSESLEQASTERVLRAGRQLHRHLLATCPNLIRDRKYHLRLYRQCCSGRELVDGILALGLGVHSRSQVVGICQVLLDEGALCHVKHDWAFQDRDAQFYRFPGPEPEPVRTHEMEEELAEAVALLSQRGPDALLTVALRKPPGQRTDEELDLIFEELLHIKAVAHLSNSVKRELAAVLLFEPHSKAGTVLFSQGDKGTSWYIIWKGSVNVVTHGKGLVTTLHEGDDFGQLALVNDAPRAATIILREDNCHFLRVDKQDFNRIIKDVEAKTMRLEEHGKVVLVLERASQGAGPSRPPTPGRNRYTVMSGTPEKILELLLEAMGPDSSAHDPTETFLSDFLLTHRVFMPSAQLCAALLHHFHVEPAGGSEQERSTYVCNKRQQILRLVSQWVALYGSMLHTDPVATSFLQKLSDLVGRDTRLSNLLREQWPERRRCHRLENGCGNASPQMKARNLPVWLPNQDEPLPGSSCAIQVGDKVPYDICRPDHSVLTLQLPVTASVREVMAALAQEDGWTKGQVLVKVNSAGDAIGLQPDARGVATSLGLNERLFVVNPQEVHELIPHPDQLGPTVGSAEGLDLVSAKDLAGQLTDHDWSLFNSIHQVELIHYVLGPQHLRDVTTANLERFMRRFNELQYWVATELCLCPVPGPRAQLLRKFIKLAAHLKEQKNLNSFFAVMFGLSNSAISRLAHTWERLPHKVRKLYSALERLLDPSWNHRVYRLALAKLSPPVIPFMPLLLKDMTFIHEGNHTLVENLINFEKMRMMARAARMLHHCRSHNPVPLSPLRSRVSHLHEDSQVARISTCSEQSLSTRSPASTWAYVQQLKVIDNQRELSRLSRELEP

Activity change, negative = inhibition, inactive:
CN(C)c1ccc(-c2cc(NCc3ccccc3)ncn2)cc1 24.8%
C=CC(C)=C[C@@]1(C)SC(=O)C(C)=C1O 3.65% [at 75.8 µM]
CC(=O)Nc1ccc(NC(=S)NC(=O)c2ccc(C(C)(C)C)cc2)cc1 9.43%
O=C1CCN(Cc2ccc(O)cc2)CCN1[C@H](CO)Cc1ccccc1 13.1%
COc1ccc(-c2cc(C)cc3c2OC(CNC(=O)/C=C/c2ccncc2)C3)nn1 (stereo not given) 15.6%
OCCN1CCN(Cc2ccc3c(c2)CN(Cc2cnc(-c4ccccc4)s2)CCO3)CC1 18%
O=C(CS(=O)Cc1ccco1)NCC=CCOc1cc(CN2CCCCC2)ccn1 (stereo not given) 13.1%
NC12CC3CC(CC(C3)C1)C2
Cc1noc(C)c1C(=O)N1CCC2(CC1)CCN(c1ccncc1)CC2 24.6%
CCCN1CCC(=O)N([C@H](COc2ccccc2)CC(C)C)CC1 10.8%
CC(C)(C)C(=O)NCCCC(=O)O 12.3%
O=c1c(-c2cccs2)nc2cnc(Oc3cccc(Cl)c3)nc2n1C[C@H]1CCCO1 10.6%
FC(F)(F)c1ccccc1-c1ccc2ncnc(NC3CCNCC3)c2c1 18.9%
N#C/C(=C\c1ccc(O)c(O)c1)C(=O)c1ccc(O)c(O)c1 -6.35% [at 75.8 µM]
CCCCCC(CC(=O)O)C(=O)O (stereo not given) 14.8%
COc1cc(NS(=O)(=O)c2ccc(N)cc2)nc(C)n1 34.1%
CO[C@H]1[C@H](NC(=O)c2ccsc2)c2ccccc2C12CCN(Cc1c(O)ccc3ccccc13)CC2 7.42%
CO[C@H]1O[C@@H]2O[C@@]3(C)CC[C@H]4[C@H](C)CC[C@@H]([C@H]1C)[C@@]24OO3 15.8%
Cc1ccc(C(=O)Nc2cccc(-c3nc(CNC(=O)c4cccc(C)c4C)c(C)o3)c2)s1 0.382%
O=c1c2ccccc2oc2ccccc12 10.4%
CN(C)c1ncc2nc(-c3ccc(Cl)cc3)c(=O)n(-c3ccccc3)c2n1 1.73%
COc1ccc(-c2nc3cnc(OCc4ccccc4)nc3n(CCC#N)c2=O)cc1 19%
COC(=O)[C@@H]1CCCN1C(=O)c1c(OC)cc(=O)n2c1CCN(Cc1ccc3nsnc3c1)CC2 11.9%
CCOC(=O)N1CCN(Cc2ccc3c(c2)CN(C(=O)c2cc(-c4ccccc4)no2)CCO3)CC1 -13.5%
CC(=O)N1CCC2(CC1)CN(c1ccccn1)C2 4.69%
CC(=O)N1CCC2(CCCN(Cc3cc(C(F)(F)F)cc(C(F)(F)F)c3)C2)CC1 14.3%
O=C1CCN(Cc2ccc(Br)cc2)CCN1[C@H](CO)Cc1ccccc1 -0.993%
Cc1cc(=O)n(-c2ccccc2)n1C
Cc1csc[n+]1CC(=O)c1ccccc1 -15.5%
CN(C)c1cccc(C(=O)NCC2Cc3cccc(-c4cncnc4)c3O2)c1 (stereo not given) 7.98%
Cc1nc2cc(NC(=O)[C@@H]3C[C@@H](Sc4ccccn4)CN3C3CCCCCC3)ccc2s1 5.2%
CCCN(CCc1cccs1)[C@H]1CCc2c(O)cccc2C1 -0.592%
COC(=O)[C@H]1[C@@H]2C[C@H]3c4[nH]c5ccccc5c4CCN3C[C@@H]2CC[C@@H]1O 2.47%
COc1ccc2[nH]cc(CCNc3nc(-c4cccc(C#N)c4)nc4ccccc34)c2c1 -16.7%
COc1ccc(SC[C@H](C)CN2CC[C@H](O)CCC2=O)cc1 9.89%
CC1CCc2c(N3CCC(O)CC3)c(F)cc3c(=O)c(C(=O)O)cn1c23 (stereo not given) 0.539%
Cn1cccc1C(=O)N1CCC2(CC1)CCN(c1ccccn1)CC2 14.4%
CC(=O)c1ccc(F)c(-c2cc(C)cc3c2OC(CNC(=O)c2cnc4ccccn4c2=O)C3)c1 (stereo not given) -11.2%
CC1(C2CCN(Cc3c[nH]c4ccccc34)CC2)NC(=O)N(CCN2CCOCC2)C1=O (stereo not given) 19.3%
CNCC(=O)NCC(=O)N[C@@H](Cc1ccccc1)C(=O)N[C@@H](CC(C)C)C(=O)O (H-[Sar]GFL-OH) 0.318% [at 15.3 µM]
CC(C)[C@@H]1CC[C@@H](C)C[C@@H]1P(=O)(c1ccccc1)c1ccccc1 -11.1% [at 75.8 µM]
CC(C)C(N)C(=O)NC(Cc1c[nH]c2ccccc12)C(=O)O (stereo not given) 18.5%
CC1(C)CCC[C@@]2(C)C1CC[C@@](C)(O)[C@@H]2CC[C@@](C)(O)C1CO1 (stereo not given in full) -17.4%
Cc1ccc(-c2ncc(Cl)cc2-c2ccc(S(C)(=O)=O)cc2)cn1 11.2%
O=c1c(O)c(-c2ccc(O)cc2)oc2ccc(O)cc12 2.45%
CN(C)c1ccc(/C=C/c2ccnc3c(Cl)cccc23)cc1 -3.36%
CC1CCC(C(C)[C@H]2CCC3C4CC(=O)C5C[C@@H](O)CC[C@]5(C)C4CC[C@@]32C)=NC1 (stereo not given in full) 2.85%
NCC(=O)O 24.4%
Cc1c(CN2CCOc3c(cc(-c4ncc(C(F)(F)F)cc4Cl)cc3OCC3CCCO3)C2)cnn1C (stereo not given) 11.6%
COCC(=O)N1CCC[C@@]2(CCN(Cc3ccccc3)C2)C1 13.8%
COc1ccc(-c2coc3cc(OC4OC(CO)C(O)C(O)C4O)cc(O)c3c2=O)cc1 (stereo not given) 15.4%
COc1cc2c(cc1OC)[C@H](C)N(CC1C(=O)O[C@@H]3C[C@@]4(C)CCC[C@H](C)[C@@]45OC5[C@H]13)CC2 (stereo not given in full) -13.9%
C[C@H]1CN(Cc2ccccc2)C(=O)[C@@H]1CC(=O)NCc1ccccc1 10.5%
O=C1CCC[C@@H]2Cc3nc4ccc(Cl)cc4cc3[C@@H]3CCN1[C@H]23 3.03%
O=c1cc(-c2cccc(O)c2)oc2cccc(O)c12 11.1%
COc1cccc(CN2CCC3(CC2)c2ccccc2[C@@H](NC(=O)c2ccccc2)[C@@H]3O)c1O 7.85%
O=C(O)c1ccccc1Nc1ccccc1
Nc1ncnc(Nc2ccc(Cl)cc2)n1 25.4%
COc1c(O)cc2c(-c3ccccc3)cc(=O)oc2c1OC 2.42%
N=c1ccn2c(n1)O[C@@H]1[C@H](O)[C@H](CO)O[C@@H]12 9.24%
COc1cccc(CNC(=O)c2c(OC)cc(=O)n3c2CCN(C(=O)c2ccc(C)cc2C)CC3)c1 2.41%
C[C@@H]1[C@H](c2ccccc2)OCCS(=O)(=O)N1Cc1ccccc1Br -15.5%
CC(=O)Nc1ccc(S[C@@H](CCN2CC[C@H](C(C)(C)C)CCC2=O)c2ccccc2)cc1 -13.6%
CSc1nccc(-c2cc(Cl)c3c(c2)CC(CNC(=O)c2nonc2C)O3)n1 (stereo not given) 11.2%
CCc1nnc(NS(=O)(=O)c2ccc(N)cc2)s1 -3.15%
